Measured values as given in PubChem BioAssay AID588342 (National Center for Advancing Translational Sciences (NCATS), 2011).
Among all 360,000 compounds or so, about 25,000 (6.9%) were called active. The shares of active, inactive and inconclusive entries below differ from those in the screen. Calls come from the whole dose curve; as a rule, active = well fitted inhibition curve with a large enough effect; inconclusive = small, poorly fitted or top-dose-only effect; inactive = flat fitted curve, though single readings scatter. Where the call is inconclusive, the potency comes from a doubtful curve fit.
Note: nearly all actives have a fitted effect of over 55% in size.
Potency is the fitted concentration of half-maximal effect; tags give direction and shape of the fitted curve.

The compounds below were run against Luciferin 4-monooxygenase (Photinus pyralis) (UniProt P08659) (assay: qHTS profiling assay for firefly luciferase inhibitor/activator using purifed enzyme and Km concentrations of substrates (counterscreen for miR-21 project)). Conditions: purified FLuc, luminescence inhibition; series mostly up to 57.5 µM.
Chain of UniProt P08659 (P08659 whole entry, looked up): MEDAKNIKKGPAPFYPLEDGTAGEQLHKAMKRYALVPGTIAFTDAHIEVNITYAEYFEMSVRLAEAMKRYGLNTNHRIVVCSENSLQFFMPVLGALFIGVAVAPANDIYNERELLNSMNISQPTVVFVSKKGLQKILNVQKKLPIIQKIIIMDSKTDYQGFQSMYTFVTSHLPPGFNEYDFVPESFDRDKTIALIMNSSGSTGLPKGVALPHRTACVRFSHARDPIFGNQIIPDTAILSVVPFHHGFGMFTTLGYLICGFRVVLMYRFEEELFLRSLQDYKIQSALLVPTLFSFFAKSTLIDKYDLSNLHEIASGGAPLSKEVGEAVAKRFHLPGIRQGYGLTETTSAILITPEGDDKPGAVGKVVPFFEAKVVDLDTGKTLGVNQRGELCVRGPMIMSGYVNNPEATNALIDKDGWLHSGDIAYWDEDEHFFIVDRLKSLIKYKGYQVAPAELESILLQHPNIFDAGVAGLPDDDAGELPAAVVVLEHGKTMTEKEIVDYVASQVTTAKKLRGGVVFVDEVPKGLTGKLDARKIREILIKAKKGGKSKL
Method in brief: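 Purified P. pyralis luciferase (10nM final) with 10uM D-luciferin and 10uM ATP (Km levels) in 50mM Tris acetate pH 7.5, 10mM Mg acetate, 0.01% Tween-20, 0.05% BSA; qHTS 6-point titration, ~60 µM downward; luminescence read.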
With `Cc1ccc2c(c1)c1nnc(SCC(=O)Nc3ccc(N(C)C)cc3)nc1n2CC(=O)O` the Potency was inconclusive: 37.9 µM [inhibitor, partial curve, poor fit]. With `COc1cc(CCC(=O)NCc2ccc3c(c2)CCN3C(=O)c2cccc(C)c2)cc(OC)c1OC` the Potency was “inactive”. With `Cc1cc2nc(-c3ccc(SCc4ccc(C#N)cc4)nc3)[nH]c2cc1C` the Potency was active: 5.36 µM. With `Cc1ccc(C(=O)NNC(=O)C(NC(=O)c2cccc(C)c2)C(C)C)cc1` (configuration not stated) the Potency was inconclusive: 23.9 µM [inhibitor, single point]. For `Cc1c(CCOC(=O)CC23CC4CC(CC(C)(C4)C2)C3)sc[n+]1Cc1ccc([N+](=O)[O-])cc1`, the Potency was “inactive”. In the case of `CCOc1ccc(NC(=O)NCc2cccn2C)cc1`, the Potency is reported as inconclusive: 26.9 µM [inhibitor, partial curve, poor fit]. For `Cc1nc(SCC(=O)c2ccccc2)[nH]c(=O)c1Oc1ccc(Cl)cc1`, the Potency was inconclusive: 26.9 µM [inhibitor, partial curve, poor fit]. For `CCN(CC)C(=O)COCc1cc(-c2ccc3c(c2)OCO3)on1`, the Potency was inconclusive: 23.9 µM [inhibitor, single point]. In the case of `COc1ccc(CC(=O)N2CCCc3ccccc32)cc1OC`, the Potency is reported as “inactive”. With `COc1ccc(C2CCCN2C(=O)Nc2ccc(C)c(C)c2)cc1OC` (configuration not stated) the Potency was inconclusive: 30.1 µM [inhibitor, partial curve, poor fit]. For `CCOc1ccc(/C=C2/SC(=S)N(C(C(=O)O)c3ccccc3)C2=O)cc1OCC` (configuration not stated), the Potency was inconclusive: 23.9 µM [inhibitor, partial curve]. In the case of `Cc1ccc(O)c(C(=O)c2cc(C#N)c3nc4ccccc4n3c2)c1`, the Potency is reported as inconclusive: 15.1 µM [inhibitor, partial curve]. In the case of `COc1ccc(C(=O)Nc2ccc(NC(=O)c3cccs3)cc2)cc1Cl`, the Potency is reported as “inactive”. With `Cc1ccccc1Cn1c(Oc2ccccc2F)nc2c1c(=O)n(C)c(=O)n2C` the Potency was “inactive”. For `O=C(c1ccc2c(=O)n(Cc3ccco3)c(=S)[nH]c2c1)N1CCN(c2ccccc2)CC1`, the Potency was “inactive”. `CCOc1ccc(C(=O)Nc2ccncc2)cc1` was tested, and the Potency was inconclusive: 26.9 µM [inhibitor, single point]. With `C=CCn1c(=S)[nH]c2sccc2c1=O` the Potency was inconclusive: 26.9 µM [inhibitor, partial curve, poor fit]. In the case of `COc1ccc2c(c1)c(C(=O)N/N=C/c1ccc(Cl)cc1)c(C)n2C`, the Potency is reported as inconclusive: 37.9 µM [inhibitor, partial curve, poor fit]. In the case of `O=C(Nc1ccc(Cl)cc1)c1ccc2c(c1)OCO2`, the Potency is reported as active: 1.35 µM. In the case of `CC(C)[C@H](NC(=O)OCc1ccccc1)C(=O)N[C@@H](Cc1c[nH]c2ccccc12)C(=O)O`, the Potency is reported as inconclusive: 37.9 µM [inhibitor, partial curve, poor fit]. With `COC(=O)c1sc2cc(=O)n(-c3cccc(C(F)(F)F)c3)nc2c1O` the Potency was inconclusive: 37.9 µM [inhibitor, partial curve, poor fit]. In the case of `Cc1ccc2nc(SCc3nc(-c4ccccc4C)no3)[nH]c2c1`, the Potency is reported as “inactive”. For `O=C1S/C(=C\c2ccc(O)c([N+](=O)[O-])c2)C(=O)N1c1ccccc1Cl`, the Potency was inconclusive: 26.9 µM [inhibitor, single point]. In the case of `Cc1c(CCC(=O)N[C@@H](C)C(=O)O)c(=O)oc2cc3occ(-c4ccccc4)c3cc12`, the Potency is reported as inconclusive: 26.9 µM [inhibitor, single point]. For `O=C(Nc1nc2cc3c(cc2s1)OCO3)C1=COCCO1`, the Potency was active: 0.19 µM. With `Cc1ccc(C(=O)CCNc2ccccc2)o1` the Potency was inconclusive: 37.9 µM [inhibitor, partial curve, poor fit]. With `Clc1ccc(OCCn2ccnc2)c(Cl)c1` the Potency was inconclusive: 30.1 µM [inhibitor, partial curve, poor fit]. For `Cc1cc(-c2ccccc2)nc(N/N=C/c2ccccc2F)n1`, the Potency was active: 10.7 µM. In the case of `O=C(Cn1cc2c(n1)CCCCC2)Nc1ccccc1Cl`, the Potency is reported as inconclusive: 37.9 µM [inhibitor, partial curve, poor fit]. For `COc1ccccc1CCNC(=O)CCc1c(C)c2cc3c(C)coc3cc2oc1=O`, the Potency was “inactive”. For `CC(C)(C)c1ccc(Oc2ccc(NC(=O)c3cccs3)cn2)cc1`, the Potency was inconclusive: 23.9 µM [inhibitor, partial curve, poor fit]. `O=C(NCCc1ccc(F)cc1)NC12CC3CC(CC(C3)C1)C2` was tested, and the Potency was active: 10.7 µM. For `Cc1ccc2[nH]c3c(N4CCc5ccccc5C4)ncnc3c2c1`, the Potency was inconclusive: 23.9 µM [inhibitor, partial curve]. With `CN(Cc1ccon1)Cc1cn(C)nc1-c1cccc(Cl)c1` the Potency was active: 5.36 µM. `COc1ccccc1CC(=O)c1ccc(OCc2ccccc2)cc1` was tested, and the Potency was inconclusive: 26.9 µM [inhibitor, single point]. In the case of `Nc1c2c(nc3ccc(Br)cc13)N(C1CCCCC1)CC2`, the Potency is reported as inconclusive: 37.9 µM [inhibitor, single point]. `N#CCc1ccc(OC(=O)Nc2ccccc2)cc1` was tested, and the Potency was inconclusive: 37.9 µM [inhibitor, partial curve, poor fit]. For `COc1ccc(OC)c(CCNC(=O)c2ccc3[nH]c(C)c(C)c3c2)c1`, the Potency was “inactive”. With `COc1ccc(C(CC(=O)Nc2ccc(OC)c(OC)c2)N2Cc3ccccc3C2=O)cc1` (configuration not stated) the Potency was “inactive”. `Cc1ccc(NC(=O)c2ccc(OCC3CCCO3)cc2)nc1` (configuration not stated) was tested, and the Potency was active: 4.78 µM. With `Fc1ccc(Nc2nc(Oc3ccc4c(c3)OCO4)nc(N3CCOCC3)n2)c(F)c1` the Potency was “inactive”. `CCN1CCN(C2=C(NS(=O)(=O)c3ccccc3)C(=O)c3ccccc3C2=O)CC1` was tested, and the Potency was inconclusive: 23.9 µM [inhibitor, partial curve, poor fit]. For `CCSc1nnc(NC(=O)COc2ccccc2)s1`, the Potency was “inactive”. `O=C(Nc1ccc2c(c1)oc1ccc(S(=O)(=O)N3CCCC3)cc12)C1CC1` was tested, and the Potency was “inactive”. With `CCOC(=O)N1CCN(S(=O)(=O)c2ccc3c(c2)SCC(=O)N3)CC1` the Potency was “inactive”. `Cc1cc(Nc2cnc3ccccc3n2)n(-c2ccccc2)n1` was tested, and the Potency was inconclusive: 30.1 µM [inhibitor, partial curve, poor fit]. For `c1ccc(Cc2nc(-c3ccccn3)no2)cc1`, the Potency was active: 23.9 µM. With `COC(=O)c1ccc(NC(=O)c2ccccc2SC)cc1` the Potency was inconclusive: 37.9 µM [inhibitor, partial curve, poor fit]. With `COc1ccc(-c2cc(CNS(=O)(=O)c3ccc(F)cc3)on2)cc1` the Potency was inconclusive: 37.9 µM [inhibitor, partial curve, poor fit]. For `CCc1nc2ccc(C(=O)NCCc3ccc(OC)c(OC)c3)cc2nc1CC`, the Potency was “inactive”. `O=C(c1ccco1)N1CCN(c2nc3ccc(Cl)cc3s2)CC1` was tested, and the Potency was inconclusive: 30.1 µM [inhibitor, single point]. For `Cc1ccc(Oc2ccc(NC(=O)C3=CC=CN4CCS(=O)(=O)N=C34)cc2)cc1`, the Potency was inconclusive: 12 µM [inhibitor, partial curve]. In the case of `CC1=NN(c2ccccc2)C(=O)C1N=Nc1ccccc1` (configuration not stated), the Potency is reported as active: 2.39 µM. For `O=S(=O)(c1ccc(-c2cc(C(F)(F)F)on2)s1)N1CCN(c2cccc(Cl)c2)CC1`, the Potency was “inactive”. In the case of `COc1ccc(/C=C2\Oc3cc(OCC(=O)N4CC(O)C[C@H]4C(=O)O)ccc3C2=O)cc1OC` (some centres not stated), the Potency is reported as inconclusive: 2.13 µM [inhibitor, full curve, poor fit]. `O=C(COc1ccc(Cl)cc1Cl)N/N=C/CCc1ccccc1` was tested, and the Potency was “inactive”. In the case of `O=C(COc1cccc2cccnc12)N/N=C/c1ccccc1O`, the Potency is reported as “inactive”. With `CCc1ccc(N2CC(C)Cn3c2nc2c3c(=O)n(CC(=O)O)c(=O)n2C)cc1` (configuration not stated) the Potency was “inactive”. With `CCOc1ccc(-c2cc(C)n3nc(C(=O)Nc4ccc(C)c(C)c4)cc3n2)cc1` the Potency was “inactive”. In the case of `Cc1cc(C)c2c(C)c(C(=O)NCc3ccc(S(N)(=O)=O)cc3)oc2c1`, the Potency is reported as “inactive”. `O=C(NC1CCCCCC1)C(=S)N1CCOCC1` was tested, and the Potency was inconclusive: 26.9 µM [inhibitor, partial curve, poor fit]. In the case of `COc1ccc(NC(=O)COC(=O)C2CCCCC2)c([N+](=O)[O-])c1`, the Potency is reported as inconclusive: 16.9 µM [inhibitor, partial curve]. For `COC(=O)Cc1c(C)nc2nc(NCc3ccc(Br)cc3)[nH]n2c1=O`, the Potency was inconclusive: 26.9 µM [inhibitor, partial curve]. With `CCn1cc(C(=O)NCC(OC)OC)c(=O)c2cc(S(=O)(=O)N3CCC(C)CC3)ccc21` the Potency was “inactive”. For `O=C(O)/C=C/c1cccc(NC(=O)c2ccccc2)c1`, the Potency was inconclusive: 23.9 µM [inhibitor, single point]. For `O=C(CCCCCn1c(=O)[nH]c2ccccc2c1=O)NCCCN1CCN(c2ccccc2F)CC1`, the Potency was “inactive”. In the case of `COc1cccc(/C=C/C(=O)NNC(=O)c2ccncc2)c1`, the Potency is reported as inconclusive: 21.3 µM [inhibitor, single point]. `Cc1ccccc1OCc1nnc(SCc2cc(=O)c3cc(F)ccc3[nH]2)n1C` was tested, and the Potency was “inactive”. With `CC(C)C(=O)Nc1ccc(NC(=O)c2cccs2)cn1` the Potency was inconclusive: 19 µM [inhibitor, partial curve]. In the case of `CCOC(=O)CNC(=O)CSc1ncnc2c1nnn2-c1ccc(F)cc1`, the Potency is reported as inconclusive: 7.57 µM [inhibitor, partial curve, poor fit]. For `COc1ccc(-c2ccc(CCC(=O)O)n2-c2ccccc2C(F)(F)F)cc1`, the Potency was inconclusive: 26.9 µM [inhibitor, single point]. For `CCN(/N=C/c1ccc(N(C)C)cc1)c1nc2ccccc2[nH]1`, the Potency was inconclusive: 9.53 µM [inhibitor, partial curve].
